Measured values as given in patent US10968462B2, “Plants having increased tolerance to herbicides” (BASF AGRO B.V., priority 2013, dated 2021).
Values joined by “and” are separate entries in the source; they are usually repeats but may differ in a detail not shown here. Equal entries are not always repeated. This continues a long series; more values of the same kind are listed elsewhere.

Test system: transgenic soybean cv Jake
Test: Soybean greenhouse spray test, clones from T0 individuals, injury 0-9 point scale 1 week after treatment (Table 7A)
Assay type: in vivo, Glycine max
Experimental: Soybean cv Jake was transformed as previously described by Siminszky et al., Phytochem Rev. 5:445-458 (2006). After regeneration, transformants were transplanted to soil in small pots, placed in growth chambers (16 hr day/8 hr night; 25° C. day/23° C. night; 65% relative humidity; 130-150 microE m-2 s-1) and subsequently tested for the presence of the T-DNA via Taqman analysis. After a few weeks, healthy, transgenic positive, single copy events were transplanted to larger pots and allowed to grow in the growth chamber. An optimal shoot for cutting was about 3-4 inches tall, with at least two nodes present. Each cutting was taken from the original transformant (mother plant) and dipped into rooting hormone powder (indole-3-butyric acid, IBA). The cutting was then placed in oasis wedges inside a bio-dome. The mother plant was taken to maturity in the greenhouse and harvested for seed. Wild type cuttings were also taken simultaneously to serve as negative controls. The cuttings were kept in the bio-dome for 5-7 days and then transplanted to 3 inch pots and then acclimated in the growth chamber for two more days. […] Other herbicides, such as AHAS (ALS—Acetolactate Synthase) inhibiting herbicides were also tested in a similar fashion for confirming cross resistance to other modes of action: Tritosulfuron, Florasulam, Metsulfuron, Rimsulfuron. Herbicide injury evaluations were taken at 2, 7, 14 and 21 days after treatment.
• 0 No Injury • 1 Minimal injury, only a few patches of leaf injury or chlorosis. • 2 Minimal injury with slightly stronger chlorosis. Overall growth points remain undamaged. • 3 Slightly stronger injury on secondary leaf tissue, but primary leaf and growth points are still undamaged. • 4 Overall plant morphology is slightly different, some chlorosis and necrosis in secondary growth points and leaf tissue. Stems are intact. Regrowth is highly probable within 1 week. • 5 Overall plant morphology is clearly different, some chlorosis and necrosis on a few leaves and growth points, but primary growth point is intact. Stem tissue is still green. Regrowth is highly probably within 1 week. • 6 Strong injury can be seen on the new leaflet growth. Plant has a high probability to survive only through regrowth at different growth points. Most of the leaves are chlorotic/necrotic but stem tissue is still green. May have regrowth but with noticeable injured appearance. • 7 Most of the active growth points are necrotic. There may be a single growth point that could survive and may be partially chlorotic or green and partially necrotic. Two leaves may still be chlorotic with some green; the rest of the plant including stem is necrotic. • 8 Plant will likely die, and all growth points are necrotic. One leaf may still be chlorotic with some green. The remainder of the plant is necrotic. • 9 Plant is dead. • * Not tested

Structure (SMILES): CC(C)N(C)S(=O)(=O)NC(=O)c1cc(-n2c(=O)cc(C(F)(F)F)n(C)c2=O)c(F)cc1Cl [Saflufenacil, saflufenacil]
- injury (0-9 point scale) 1 week after treatment (Saflufenacil 12.5 g ai/ha, GOI AmtuPPX2L_F420L): 1 and 0 and 3
- injury (0-9 point scale) 1 week after treatment (Saflufenacil 12.5 g ai/ha, GOI AmtuPPX2L_F420L stacked with Bradi_1g07930.1_Zm): 4
- injury (0-9 point scale) 1 week after treatment (Saflufenacil 12.5 g ai/ha, GOI AmtuPPX2L_F420V stacked with Bradi_1g07930.1_Zm): 0 (2×) and 2
- injury (0-9 point scale) 1 week after treatment (Saflufenacil 12.5 g ai/ha, GOI AmtuPPX2L_L397D_F420V): 1 and 0
- injury (0-9 point scale) 1 week after treatment (Saflufenacil 12.5 g ai/ha, GOI AmtuPPX2L_L397D_F420V stacked with Bradi_1g07930.1_Zm): 1
- injury (0-9 point scale) 1 week after treatment (Saflufenacil 12.5 g ai/ha, GOI Bradi_1g07930.1_Zm): 5
- injury (0-9 point scale) 1 week after treatment (Saflufenacil 12.5 g ai/ha, GOI wild type): 9
- injury (0-9 point scale) 1 week after treatment (Saflufenacil 25 g ai/ha, GOI AmtuPPX2L L397D stacked with Bradi_1g07930.1_Zm): 1 (4×) and 6 and 5 and 2 and 0 (2×) and 4
- injury (0-9 point scale) 1 week after treatment (Saflufenacil 25 g ai/ha, GOI AmtuPPX2L_F420L): 9 and 0 and 2 (4×) and 1
- injury (0-9 point scale) 1 week after treatment (Saflufenacil 25 g ai/ha, GOI AmtuPPX2L_F420L stacked with Bradi_1g07930.1_Zm): 4 and 1
- injury (0-9 point scale) 1 week after treatment (Saflufenacil 25 g ai/ha, GOI AmtuPPX2L_F420V stacked with Bradi_1g07930.1_Zm): 1 (2×) and 0 (7×) and 9
- injury (0-9 point scale) 1 week after treatment (Saflufenacil 25 g ai/ha, GOI AmtuPPX2L_L397D): 7 and 2 (3×) and 9 and 5 and 3
- injury (0-9 point scale) 1 week after treatment (Saflufenacil 25 g ai/ha, GOI AmtuPPX2L_L397D_F420V): 3 and 1 and 0 and 4 and 6 and 5 (3×) and 8
- injury (0-9 point scale) 1 week after treatment (Saflufenacil 25 g ai/ha, GOI AmtuPPX2L_L397D_F420V stacked with Bradi_1g07930.1_Zm): 2 (2×) and 3 and 0 (2×) and 4 (2×) and 5 and 6 and 8
- injury (0-9 point scale) 1 week after treatment (Saflufenacil 25 g ai/ha, GOI AmtuPPX2L_R128A_F420L): 4 and 0
- injury (0-9 point scale) 1 week after treatment (Saflufenacil 25 g ai/ha, GOI Bradi_1g07930.1_Zm): 9 and 4
- injury (0-9 point scale) 1 week after treatment (Saflufenacil 25 g ai/ha, GOI wild type): 9
- injury (0-9 point scale) 1 week after treatment (Saflufenacil 50 g ai/ha, GOI AmtuPPX2L L397D stacked with Bradi_1g07930.1_Zm): 2 (4×) and 9 and 6 and 1 (3×) and 7
- injury (0-9 point scale) 1 week after treatment (Saflufenacil 50 g ai/ha, GOI AmtuPPX2L_F420L): 9 and 0 and 2 and 1 and 3 (2×) and 5
- injury (0-9 point scale) 1 week after treatment (Saflufenacil 50 g ai/ha, GOI AmtuPPX2L_F420L stacked with Bradi_1g07930.1_Zm): 3
- injury (0-9 point scale) 1 week after treatment (Saflufenacil 50 g ai/ha, GOI AmtuPPX2L_F420V): 6
- injury (0-9 point scale) 1 week after treatment (Saflufenacil 50 g ai/ha, GOI AmtuPPX2L_F420V stacked with Bradi_1g07930.1_Zm): 0 (4×) and 1 (4×) and 9 and 2
- injury (0-9 point scale) 1 week after treatment (Saflufenacil 50 g ai/ha, GOI AmtuPPX2L_L397D): 9 (2×) and 4 (2×) and 3 and 6 and 5
- injury (0-9 point scale) 1 week after treatment (Saflufenacil 50 g ai/ha, GOI AmtuPPX2L_L397D_F420V): 6 (2×) and 2 and 1 and 7 and 4 (2×) and 5 and 9
- injury (0-9 point scale) 1 week after treatment (Saflufenacil 50 g ai/ha, GOI AmtuPPX2L_L397D_F420V stacked with Bradi_1g07930.1_Zm): 1 (2×) and 3 (4×) and 0 and 5 (2×) and 4 and 9
- injury (0-9 point scale) 1 week after treatment (Saflufenacil 50 g ai/ha, GOI AmtuPPX2L_R128A_F420L): 6 (2×) and 1 and 3
- injury (0-9 point scale) 1 week after treatment (Saflufenacil 50 g ai/ha, GOI Bradi_1g07930.1_Zm): 8 and 9
- injury (0-9 point scale) 1 week after treatment (Saflufenacil 50 g ai/ha, GOI wild type): 9 (2×) and 8
- injury (0-9 point scale) 1 week after treatment (Saflufenacil 100 g ai/ha, GOI AmtuPPX2L L397D stacked with Bradi_1g07930.1_Zm): 2 (2×) and 9 (2×) and 7 and 5 and 3 (2×) and 1 (2×)
- injury (0-9 point scale) 1 week after treatment (Saflufenacil 100 g ai/ha, GOI AmtuPPX2L_F420L): 9 and 4 and 6 and 5
- injury (0-9 point scale) 1 week after treatment (Saflufenacil 100 g ai/ha, GOI AmtuPPX2L_F420V): 6
- injury (0-9 point scale) 1 week after treatment (Saflufenacil 100 g ai/ha, GOI AmtuPPX2L_F420V stacked with Bradi_1g07930.1_Zm): 0 and 1 (2×) and 9 and 2 (3×)
- injury (0-9 point scale) 1 week after treatment (Saflufenacil 100 g ai/ha, GOI AmtuPPX2L_L397D): 9 (2×) and 4 (2×) and 6 (2×) and 5
- injury (0-9 point scale) 1 week after treatment (Saflufenacil 100 g ai/ha, GOI AmtuPPX2L_L397D_F420V): 6 (2×) and 7 and 5 (2×) and 4 and 9
- injury (0-9 point scale) 1 week after treatment (Saflufenacil 100 g ai/ha, GOI AmtuPPX2L_L397D_F420V stacked with Bradi_1g07930.1_Zm): 4 (3×) and 3 and 2 (3×) and 5 (3×) and 9
- injury (0-9 point scale) 1 week after treatment (Saflufenacil 100 g ai/ha, GOI AmtuPPX2L_R128A_F420L): 6 (2×) and 1 and 9 and 4 and 5
- injury (0-9 point scale) 1 week after treatment (Saflufenacil 100 g ai/ha, GOI AmtuPPX2L_R128A_F420V): 6 (3×) and 2 (2×) and 1 and 9 (2×) and 4 (3×) and 3 (2×)
- injury (0-9 point scale) 1 week after treatment (Saflufenacil 100 g ai/ha, GOI Bradi_1g07930.1_Zm): 7 and 9 and 5
- injury (0-9 point scale) 1 week after treatment (Saflufenacil 100 g ai/ha, GOI wild type): 9 and 8
- injury (0-9 point scale) 1 week after treatment (Saflufenacil 200 g ai/ha, GOI AmtuPPX2L_R128A_F420L): 8 and 6 and 4 and 7
- injury (0-9 point scale) 1 week after treatment (Saflufenacil 200 g ai/ha, GOI AmtuPPX2L_R128A_F420V): 6 (5×) and 2 (4×) and 3 and 9 (2×) and 4 (2×)
- injury (0-9 point scale) 1 week after treatment (Saflufenacil 200 g ai/ha, GOI wild type): 9
